In PubChem BioAssay AID624417 (National Center for Advancing Translational Sciences (NCATS), 2012):
Hit rate of the full screen: of about 410,000 compounds, about 6,400 (1.6%) were called active. This list was built around the results that the source calls inconclusive (neither active nor inactive); the mix of calls is not that of the screen. Calls come from the whole dose curve; as a rule, active = well fitted inhibition curve with a large enough effect; inconclusive = small, poorly fitted or top-dose-only effect; inactive = no such curve, though single readings can be large or run the other way. No potency is given beside an inconclusive call; the fits are too rough.

What follows are molecules tested against Glucagon-like peptide 1 receptor (Homo sapiens) (UniProt P43220) (assay: qHTS of GLP-1 Receptor Inverse Agonists (Inhibition Mode)). Details: HEK293 GLP-1R CRE-luciferase, luminescence, 24 h, GLP-1R form is constitutively active; series mostly up to 38.3 µM.
Procedure, shortened: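 GLP-1R inverse agonism mode: basal reporter luminescence in engineered HEK293 cells measured after one day of compound exposure at 37 deg C, with a 12 min room-temperature detection step.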
Note: nearly all actives have a fitted effect of over 55% in size.
Potency is the fitted concentration of half-maximal effect; tags give direction and shape of the fitted curve.

Sequence of UniProt P43220 (P43220 whole entry, looked up): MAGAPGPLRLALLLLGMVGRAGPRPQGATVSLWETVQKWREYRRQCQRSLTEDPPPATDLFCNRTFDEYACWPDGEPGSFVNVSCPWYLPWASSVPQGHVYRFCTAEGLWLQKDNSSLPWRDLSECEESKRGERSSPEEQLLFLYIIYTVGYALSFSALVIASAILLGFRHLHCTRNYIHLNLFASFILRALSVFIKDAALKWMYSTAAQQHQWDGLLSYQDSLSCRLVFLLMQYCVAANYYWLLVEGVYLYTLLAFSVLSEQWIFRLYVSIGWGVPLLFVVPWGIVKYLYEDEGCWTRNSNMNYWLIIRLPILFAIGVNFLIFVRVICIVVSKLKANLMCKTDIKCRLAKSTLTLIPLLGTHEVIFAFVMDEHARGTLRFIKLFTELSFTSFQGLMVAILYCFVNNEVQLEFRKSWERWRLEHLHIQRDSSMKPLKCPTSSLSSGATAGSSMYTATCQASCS

How did the Potency turn out when `COc1ccc(OC)c(S(=O)(=O)N2CCC(C(=O)Nc3ccc(C)c(C)c3)CC2)c1` was run?
Its Potency is inconclusive [inhibitor, single point].

How did the Potency turn out when `CCc1cccc(C)c1NC(=O)c1ccc2c(c1)CCN2S(C)(=O)=O` was run?
Its Potency is inconclusive [inhibitor, single point].

Which Potency does the source give for `O=C(c1ccc(Cl)cc1)C1CCCN(Cc2ccc(Oc3ncccn3)cc2)C1` (configuration not stated) here?
Its Potency is inconclusive [inhibitor, partial curve, poor fit].

How did the Potency turn out when `O=C(NCc1ccccc1)C1c2ccccc2OCC(=O)N1Cc1ccccc1` (configuration not stated) was run?
The Potency was “inactive”.

`Cn1c(-c2c(N)n(CCc3ccccc3)c3nc4ccccc4nc23)nc2ccccc21` was tested. Which Potency did it give?
Its Potency is inconclusive [inhibitor, partial curve, poor fit].

For `COc1ccc(Br)cc1C(=O)Nc1ccccc1N1CCN(C(=O)c2ccccc2)CC1`, which Potency is on record?
Its Potency is inconclusive [inhibitor, partial curve, poor fit].

For `c1ccc(N2CCN(c3nc(-c4cccs4)nc4ccccc34)CC2)cc1`, which Potency is on record?
The Potency was inconclusive [inhibitor, partial curve, poor fit].

With `COc1ccc(-c2nc3c(Cl)cc(C(F)(F)F)cn3c2Cc2cccc(F)c2)cc1OC` as the molecule, how does the Potency read?
Its Potency is inconclusive [inhibitor, single point].

`Cc1cc(C(=O)CCl)c(C)n1CCc1ccc(F)cc1` was tested. Which Potency did it give?
Its Potency is inconclusive [inhibitor, single point].

For `Cc1ccc(O)c(C(=O)c2cnc3c(c2)COc2ccc(C)cc2-3)c1`, which Potency is on record?
The Potency was inconclusive [inhibitor, partial curve, poor fit].

Which Potency does the source give for `COc1ccc(NC(=O)c2ccc(-c3ccccc3Cl)o2)cc1` here?
Its Potency is inconclusive [inhibitor, single point].

`CCCCCCCNC(=O)CN1N=C(c2ccc(C)cc2)CCC1=O` was tested. Which Potency did it give?
The Potency was inconclusive [inhibitor, single point].

How did the Potency turn out when `COC(=O)C(CC(=O)c1cccc(OC)c1)c1ccc(F)cc1` (configuration not stated) was run?
Its Potency is inconclusive [inhibitor, single point].

`O=C(Nc1ccccc1Cl)N1CCC2(CC1)Oc1ccccc1C(=O)N2Cc1ccc(F)cc1` was tested. Which Potency did it give?
Its Potency is “inactive”.

With `Cc1cc(C)n(CCC(=O)N/N=C/c2ccc(O)cc2O)n1` as the molecule, how does the Potency read?
The Potency was inconclusive [inhibitor, single point].

For `CCCCCOc1ccc(C(=O)C(c2ccccc2)N2CCOCC2)cc1` (configuration not stated), which Potency is on record?
The Potency was inconclusive [inhibitor, partial curve, poor fit].

For `Cc1ccc2occ(/C=N/NC(=O)c3ccc(O)cc3)c(=O)c2c1`, which Potency is on record?
Its Potency is inconclusive [inhibitor, partial curve, poor fit].

How did the Potency turn out when `CCCCc1ccc(NC(=O)CSc2nc(=O)n(CCCN3CCOCC3)c3c2CCC3)cc1` was run?
The Potency was inconclusive [inhibitor, partial curve, poor fit].

Which Potency does the source give for `CCc1ccc(NC(=O)c2cnc3c(-c4ccccc4)c(C)nn3c2C)cc1` here?
The Potency was inconclusive [inhibitor, partial curve, poor fit].

How did the Potency turn out when `COc1ccc(NC(=O)C2CCC(C(C)(C)C)CC2)cc1S(=O)(=O)N1CCOCC1` (configuration not stated) was run?
Its Potency is inconclusive [inhibitor, single point].

Which Potency does the source give for `O=C(Nc1ccc(Br)cc1)c1ccc2ncsc2c1` here?
The Potency was inconclusive [inhibitor, single point].

With `O=c1c2ccccc2sn1-c1cccc(Cl)c1` as the molecule, how does the Potency read?
The Potency was inconclusive [inhibitor, partial curve, poor fit].

`NC(c1csc(NC(=O)Nc2ccccc2Oc2ccccc2)n1)c1ccccc1Cl` (configuration not stated) was tested. Which Potency did it give?
The Potency was inconclusive [inhibitor, partial curve, poor fit].

Which Potency does the source give for `COCCNC(=O)c1c(NC(=O)c2cc(=O)c3cc(C)cc(C)c3o2)sc2c1CCCC2` here?
Its Potency is “inactive”.

How did the Potency turn out when `OCCN1CCN(CC(O)COCCOc2ccc(Br)cc2)CC1` (configuration not stated) was run?
The Potency was inconclusive [inhibitor, partial curve, poor fit].

Which Potency does the source give for `CSc1cccc(NC(=S)N(CCN(C)C)C(C)c2ccccn2)c1` (configuration not stated) here?
The Potency was inconclusive [inhibitor, partial curve, poor fit].

For `O=C(Cn1cnc(Cl)c1Cl)c1ccc(F)cc1`, which Potency is on record?
The Potency was inconclusive [inhibitor, partial curve, poor fit].

Which Potency does the source give for `COC(=O)[C@]12CCCCC=C1N(Cc1cccc3ccccc13)C(=O)[C@H](CC(=O)NCCC(C)C)C2` here?
Its Potency is inconclusive [inhibitor, partial curve, poor fit].

For `C#CCOCCOCCOCCNc1nc(N2CCN(C(=O)CCCCCCCCCCNC(=O)[C@H](CCCCN)n3cc(C)nn3)CC2)nc(N2CCN(C(=O)CCCCCCCCCCNC(=O)[C@H](CCCN=C(N)N)n3cc(C[C@@H](C)CC)nn3)CC2)n1`, which Potency is on record?
The Potency was “inactive”.

With `CCCCN(CC)C(=O)Cc1cn(C)c2ccccc12` as the molecule, how does the Potency read?
Its Potency is inconclusive [inhibitor, single point].

For `CC(C)Oc1ccc(CNC(=S)Nc2ccccc2)cc1Cl`, which Potency is on record?
The Potency was inconclusive [inhibitor, single point].

For `COc1ccc(CN2CCC(Cc3ccccc3)CC2)c(C)c1C`, which Potency is on record?
The Potency was inconclusive [inhibitor, single point].

`O=C(/C=C/c1ccc(Br)o1)NC(c1ccccc1)c1ccccc1` was tested. Which Potency did it give?
Its Potency is inconclusive [inhibitor, partial curve, poor fit].

How did the Potency turn out when `COc1ccccc1-c1ccc2c(c1)C(C)(Cc1ccc(Cl)c(Cl)c1)C(=O)N2` (configuration not stated) was run?
The Potency was inconclusive [inhibitor, partial curve, poor fit].

With `COc1cc(OC)cc(C2=Cc3ccc(OC)cc3C(CC(C)=O)N2c2ccc(C#CC3(N)CCCCC3)cc2)c1` (configuration not stated) as the molecule, how does the Potency read?
Its Potency is inconclusive [inhibitor, single point].

For `COc1ccc(NC(=O)CCS(=O)(=O)c2nc(-c3ccc4c(c3)OCO4)cc(C(F)(F)F)n2)cc1OC`, which Potency is on record?
Its Potency is inconclusive [inhibitor, single point].

`Cc1c(C(=O)O)sc2nc3n(c(=O)c12)CCCCC3` was tested. Which Potency did it give?
The Potency was “inactive”.
